This note sets out measurements from PubChem BioAssay AID588591 (National Center for Advancing Translational Sciences (NCATS), 2011).

SMILES strings stand for the structures. Among all 390,000 compounds or so, about 4,700 (1.2%) were called active. Another 4% or so got no clear call; they are omitted. Calls come from the whole dose curve; as a rule, active = well fitted inhibition curve with a large enough effect; inconclusive = small, poorly fitted or top-dose-only effect, or another doubt; inactive = no such curve, though single readings can be large or run the other way. This is a selection; strong and weak results do not stand in their true shares. Where a SMILES comes first, the peptide text is derived from it. Bridges are numbered along the chain shown (N, C = ends). [ ]: non-standard residue; d: D form. The star is where a group is joined. X1 = CCC(C)C(N)C1=NC(C(=O)*)CS1; dOrn = NCCC[C@@H](N)C(=O)O
% is set by controls: 0 for no effect and ±100 for the full control effect; potency is the fitted concentration of half-maximal effect.

The target in this assay is DNA polymerase eta (Homo sapiens) (UniProt Q9Y253). Briefly: qHTS for Inhibitors of Polymerase Eta. To be noted: recombinant Pol eta, fluorescent DNA replication assay; series mostly up to 114 µM; activity change, negative = inhibition: at the top concentration. In outline: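 Pol eta (10 nM) was preincubated with compounds for 15 min at room temperature, after which fluorescent replication substrate (50 nM final) was added to start the reaction. Fluorescence was read kinetically at 0 and 10 min.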
Chain of UniProt Q9Y253 (Q9Y253 whole entry, looked up): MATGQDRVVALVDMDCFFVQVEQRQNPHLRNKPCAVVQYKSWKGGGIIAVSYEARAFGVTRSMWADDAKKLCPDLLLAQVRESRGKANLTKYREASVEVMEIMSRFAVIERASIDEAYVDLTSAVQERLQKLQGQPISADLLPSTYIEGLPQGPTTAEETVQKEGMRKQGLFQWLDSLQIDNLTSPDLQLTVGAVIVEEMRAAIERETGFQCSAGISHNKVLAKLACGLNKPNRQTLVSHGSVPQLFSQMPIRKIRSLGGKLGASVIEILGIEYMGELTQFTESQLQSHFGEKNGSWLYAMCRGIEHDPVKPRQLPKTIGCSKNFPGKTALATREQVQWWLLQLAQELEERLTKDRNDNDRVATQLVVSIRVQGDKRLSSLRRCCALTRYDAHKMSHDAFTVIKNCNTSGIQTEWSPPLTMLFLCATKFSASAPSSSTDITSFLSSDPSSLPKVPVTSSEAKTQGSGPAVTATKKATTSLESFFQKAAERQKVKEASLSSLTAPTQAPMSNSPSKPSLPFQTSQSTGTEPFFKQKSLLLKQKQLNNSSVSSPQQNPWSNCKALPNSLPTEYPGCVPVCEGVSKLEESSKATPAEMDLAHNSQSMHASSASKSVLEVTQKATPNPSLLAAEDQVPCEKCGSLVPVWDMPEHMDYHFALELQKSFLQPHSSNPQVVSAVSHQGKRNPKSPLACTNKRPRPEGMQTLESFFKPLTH
(In qHTS, concentration-response curves come from the screen itself.)
For the compound `O=C(O)CC1CCC(=C(Cl)Cl)C1` (stereo unspecified), the Potency was active: 50.1 µM.
Regarding `CCC(C)C(N)C1=NC(C(=O)N[C@@H](CC(C)C)C(=O)N[C@H](CCC(=O)O)C(=O)N[C@H](C(=O)N[C@H]2CCCCNC(=O)[C@H](CC(N)=O)NC(=O)[C@@H](CC(=O)O)NC(=O)[C@H](Cc3cnc[nH]3)NC(=O)[C@@H](Cc3ccccc3)NC(=O)[C@H]([C@@H](C)CC)NC(=O)[C@@H](CCCN)NC2=O)[C@@H](C)CC)CS1` (stereo partly specified) (X1-L[dE]IK[dOrn]I[dF]H[dD]N; lactam 4-C), the “activity change, negative = inhibition” value is inactive: -0.728%.
Still for that read-out and setting: the value for `CNC(=O)NC(=O)CSc1ncc(C(F)(F)F)cc1Cl` was inactive: 10.1%.
In the case of `O=C(O)c1cc(S(=O)(=O)Nc2ccc3oc(=O)sc3c2)ccc1O`, the Potency is active: 14.1 µM.
For the compound `COc1ccc2c3c([nH]c2c1)C1CC2C(CC(O)C(OC)C2C(=O)O)CN1CC3` (stereo unspecified), the “activity change, negative = inhibition” value is inactive: -7.34%.
Still for that read-out and setting: under `c1ccc(CSc2nnc3ccc(-c4ccncc4)nn23)nc1` stands inactive: 24.2%; under `Cc1cccc(NC(=O)CSc2nc3c(sc4ccccc43)c(=O)n2CCCC(=O)NC2CCCC2)c1`, inactive: 18.7%.
On to `CSCCC(NC(=O)/C(=C/c1ccco1)NC(=O)c1ccco1)C(=O)O` (stereo unspecified), for which the “activity change, negative = inhibition” value was inactive: -22.7%.
Same read-out and setting: under `O=c1cc(-c2ccc(O)cc2)oc2cc(O)c([C@@H]3O[C@H](CO)[C@@H](O)[C@H](O)[C@H]3O)c(O)c12` stands inactive: 8.8%.
`CN(CC(=O)Nc1ccc(F)cc1)C(=O)CCc1nc2sc3c(c2c(=O)[nH]1)CCCC3`: the Potency was active: 15.8 µM.
Consider `COc1ccc(N2CCN(c3ncnc4c3cnn4C)CC2)cc1`, for which the “activity change, negative = inhibition” value is inactive: 20.1%.
On the same count and under the same terms, under `O=C(O)c1cc(O)c2c(c1)[C@H]([C@H]1c3cc(C(=O)O)cc(O)c3C(=O)c3c(O[C@@H]4O[C@H](CO)[C@@H](O)[C@H](O)[C@H]4O)cccc31)c1cccc(OC3O[C@H](CO)[C@@H](O)[C@H](O)[C@H]3O)c1C2=O` (stereo partly specified) stands inactive: -99.1%.
Still for that read-out and setting: the value for `COc1ccc([C@@H]2CC(=O)c3c(O)cc(O[C@@H]4OC(CO[C@@H]5OC(C)[C@H](O)[C@@H](O)[C@H]5O)[C@@H](O)[C@H](O)[C@H]4O)cc3O2)cc1O` (stereo partly specified) was inactive: -10%; that for `NC(C(=O)N[C@@H]1C(=O)N2C(C(=O)O)=C(Cl)CS[C@H]12)c1ccccc1` (stereo partly specified) was inactive: -1.2% [at 57.1 µM].
On the same count and under the same terms, the value for `O=Nc1c(O)n(Cc2ccccc2)c2ccccc12` was inactive: 33.5%; that for `CCOC(=O)CSc1ncnc2c1c(-c1ccccc1)cn2-c1ccc(OC)cc1` was inactive: -0.704%.
With `COc1ccc(NC(=O)c2c[nH]n3c(=O)cc(C4CCN(C(=O)OC(C)(C)C)CC4)nc23)cc1Cl`, the Potency was active: 89.1 µM.
The same measure, in the same setting: the value for `O=C(O)CCc1ccc(-c2ccc(Br)cc2)n1Cc1ccco1` was active: 56.2 µM.
For `O=C1/C(=C/c2ccco2)SC(=S)N1C1CCS(=O)(=O)C1` (stereo unspecified), the “activity change, negative = inhibition” value was inactive: -8.27%.
The same measure, in the same setting: the value for `COCCNS(=O)(=O)c1ccc2c(c1)n(C)c(=O)n2C` was inactive: 148%; that for `Cc1cccc(C(=O)Nc2nnc(S(=O)(=O)N(C)Cc3ccco3)s2)c1` was inactive: -24.3%; that for `O=C(C1CCCN(S(=O)(=O)c2ccc(Br)s2)C1)N1CCN(c2ccccc2)CC1` (stereo unspecified) was inactive: -15.7%.
Still for that read-out and setting: the value for `C=CCOC(=O)C1=C[C@H](c2ccc(C(F)(F)F)cc2)C[C@H](OCCCCO)O1` was inactive: -3.21%; that for `O=C(COc1ccccc1)Nc1nnc(S(=O)(=O)N2CCCC2)s1` was inactive: -10.1%.
On the same count and under the same terms, under `COc1cccc(N2CC(O)Cn3c2nc2c3c(=O)[nH]c(=O)n2C)c1` (stereo unspecified) stands inactive: 4.16%; under `O=c1[nH]c(-c2ccccc2)ncc1Oc1ccccc1`, inactive: 30.9%.
Take `C=CCOC(=O)C1=C[C@H](c2ccc3c(c2)OCO3)C[C@H](OCCCCO)O1`: the “activity change, negative = inhibition” value is inactive: -18.3%.
Same read-out and setting: under `COc1cc(/C=N/NC(=O)c2cncc(Br)c2)cc([N+](=O)[O-])c1O` stands inactive: 30.4%; under `COc1ccc(-c2nnn(-c3ccc(Cl)cc3Cl)c2N)cc1`, inactive: 29.6%.
With `COc1ccc2c(c1)CC(NC(=O)Nc1c(C)cc(C)cc1C)CO2` (stereo unspecified), the “activity change, negative = inhibition” value is inactive: 16.3%.
The same measure, in the same setting: the value for `COc1ccc(NS(=O)(=O)c2cc([N+](=O)[O-])ccc2N/N=C\c2c(C)[nH]c3ccccc23)cc1` was inactive: -10.7%; that for `O=C(CCCN1C(=O)/C(=C\c2cccs2)SC1=S)NNC(=O)c1cccnc1` was inactive: -14.3%.
On the same count and under the same terms, the value for `NNC(=O)[C@H]1C[C@@H]1c1ccccc1` was inactive: -7.59%.
In the case of `CC[C@H](C)/C=C/C1=CC2=C(Cl)C(=O)[C@@]3(C)OC(=O)C(C(=O)[C@H](C)[C@@H](C)O)=C3C2=CO1`, the Potency was active: 17.8 µM.
Same read-out and setting: under `O=C(O)c1cccc(-n2cccc2/C=N/O)c1` stands active: 3.16 µM; under `O=C1/C(=C\c2ccccn2)SC(=S)N1c1ccc(S(=O)(=O)Nc2nccs2)cc1`, active: 17.8 µM.
With `Cc1ccc(NC(=O)NCC2CCN(Cc3cccc(Cl)c3)CC2)cc1Cl`, the “activity change, negative = inhibition” value was inactive: -9.19%.
Consider `CCc1ccc(-n2c(SCC(=O)N3Cc4ccccc4CC3C(=O)O)nnc2-c2ccncc2)cc1` (stereo unspecified), for which the Potency is active: 22.4 µM.
Consider `O=C(O)CCN1C(=O)/C(=C\c2cccc(Oc3ccccc3)c2)SC1=S`, for which the Potency is active: 39.8 µM.
The same measure, in the same setting: under `Cc1c(CCOC(=O)c2ccc(N3CCOCC3)c([N+](=O)[O-])c2)sc[n+]1CC#N` stands active: 50.1 µM.
For the compound `CC(=O)C[C@@H](O)CC(=O)[C@@H]1OC(=O)[C@@H](C)C/C=C\Cc2ccccc21`, the “activity change, negative = inhibition” value is inactive: -11.8%.
For the compound `NCCCC[C@H]1NC(=O)[C@H](CCC(=O)O)NC(=O)c2cc([N+](=O)[O-])cc(I)c2OCC[C@@H](C(N)=O)NC1=O`, the “activity change, negative = inhibition” value is inactive: -98.3%.
The same measure, in the same setting: the value for `Cc1ccc(C(=O)N/C(=C\c2ccc(Cl)cc2)C(=O)NC2CCCCC2)cc1` was inactive: 18.8%.
Regarding `Cc1cc(/C=N/NC(=O)C(O)(c2ccccc2)c2ccccc2)c(C)n1-c1cccc(C(=O)O)c1`, the Potency is active: 10 µM.
`O=c1c2ccccc2nc2c3ccccc3cnn12`: the “activity change, negative = inhibition” value was inactive: 14.2%.
The same measure, in the same setting: the value for `COc1ccc(C(=O)CC(=O)C(=O)Nc2ccccc2Cl)cc1` was inactive: 17.6%.
Regarding `N=C1/C(=C\c2ccc(Br)o2)C(=O)N=C2SC(CC(=O)N3CCOCC3)=NN12`, the Potency was active: 17.8 µM.
Still for that read-out and setting: the value for `CC(=O)N1CCc2c(sc(NC(=O)C3COc4ccccc4O3)c2C(N)=O)C1` (stereo unspecified) was active: 22.4 µM.
In the case of `COc1cc(C2Oc3cc(C4Oc5cc(O)cc(O)c5C(=O)C4O)ccc3OC2CO)ccc1O` (stereo unspecified), the “activity change, negative = inhibition” value is inactive: -6.17%.
On the same count and under the same terms, the value for `C/C=C(/C)C(=O)OC1CC(C)(C)C[C@H]2C3=CC[C@@H]4[C@@]5(C)CCC(O[C@@H]6O[C@@H](C(=O)O)[C@@H](O)C(O[C@@H]7OC[C@H](O)[C@@H](O)[C@@H]7O[C@@H]7OC(CO)C(O)[C@@H](O)[C@@H]7O)C6O[C@@H]6OC(CO)C(O)C(O)C6O)[C@@](C)(CO)[C@@H]5CC[C@]4(C)[C@]3(C)CC(O)[C@@]12CO` (stereo partly specified) was inactive: -7.62%.
In the case of `CC1=C(/C=C/C(C)=C/C=C/C(C)=C/C(=O)O)C(C)(C)CCC1`, the Potency entry is “inactive”.
Still for that read-out and setting: the value for `COc1cccc2cc(C(=O)C3=C(O)C(=O)N(Cc4ccco4)C3c3cccnc3)oc12` (stereo unspecified) was active: 3.55 µM; that for `Cc1ccc(C(=O)Oc2cc(-c3ccc4c(c3)OCO4)cc(=O)c3c(C)oc(C)c23)cc1` was active: 79.4 µM.
On to `C=CC[C@@H](CC(=O)N(CCO)Cc1ccccc1)C(=O)N[C@H](COC(=O)[C@@H](CC=C)CC(=O)OC(C)(C)C)c1ccccc1`, for which the “activity change, negative = inhibition” value is inactive: -29.6%.
Regarding `C=CC[C@@H](CC(=O)N(CCO)Cc1ccccc1)C(=O)N[C@H](COC(=O)[C@H](CC=C)CC(=O)OC(C)(C)C)Cc1c[nH]c2ccccc12`, the “activity change, negative = inhibition” value is inactive: -25.9%.
As for `CCOC(=O)c1c(NS(=O)(=O)c2ccc(Br)cc2)sc2c1CCC2`, the Potency is active: 20 µM.
As for `Cc1ccc(Cl)cc1NC(=O)c1ccc(NC(=O)CCC(=O)O)cc1`, the “activity change, negative = inhibition” value was inactive: -0.158%.
Still for that read-out and setting: under `Cc1ccc(NC(=O)CCCn2c(=O)c3cccn3c3cccnc32)cc1C` stands inactive: 15.8%.
Regarding `O=C1NC(=S)S/C1=C\C=C\c1ccc([N+](=O)[O-])o1`, the Potency is active: 2.24 µM.
Turning to `C/C(=N\NC(=O)Cn1cc([N+](=O)[O-])cn1)c1ccco1`, the “activity change, negative = inhibition” value was inactive: 39.6%.
The same measure, in the same setting: the value for `COc1ccccc1NC(=O)/C(C#N)=C/c1cccn1C` was inactive: 16.1%; that for `CCCCCCCCCCCCCCCC(O)C(N)CO` (stereo unspecified) was inactive: -9.43%; that for `CN(c1ccccc1)S(=O)(=O)c1nnc(NC(=O)c2ccco2)s1` was inactive: -19%.
`CC1=NN(c2ccc(C)c(C)c2)C(=O)/C1=C\C=C\c1ccc([N+](=O)[O-])o1`: the Potency was active: 39.8 µM.
As to `Cc1ccc(N2C(=O)CC(N3CCN/C3=C3\CC/C(=C\c4ccccc4)C3=O)C2=O)cc1` (stereo unspecified), the “activity change, negative = inhibition” value was inactive: 17.1%.
`CC(=O)Nc1ccc(NC(=O)c2cc(=O)c3ccccc3o2)cc1`: the “activity change, negative = inhibition” value is inactive: -10.6%.
Still for that read-out and setting: the value for `O=C(NCc1nnc(SCc2ccc(C(F)(F)F)cc2)n1-c1ccccc1)C12CC3CC(CC(C3)C1)C2` was inactive: -24.6%; that for `CC1=C(C(=O)Nc2ccc(C)cc2C)C(c2ccc(Cl)cc2)n2nc(C(=O)OC(C)C)nc2N1` (stereo unspecified) was inactive: -2.77%.
`CNc1ccc(Br)cc(C(=O)/C=C/c2cc(OC)ccc2OC)c1=O`: the Potency is active: 14.1 µM.
Same read-out and setting: the value for `O=C(O)C1=C(C(=O)O)C2CCC1C2` was active: 17.8 µM; that for `Cc1cc(C(F)F)nn1CC(=O)NC1C(=O)N2C(C(=O)O)=C(CSc3nnnn3C)CSC12` (stereo unspecified) was active: 28.2 µM.
For the compound `CCN1C(=O)[C@@H]2[C@@H](c3ccc(-c4ccc(C(C)=O)cc4)cc3)N3CCC[C@@]3(C(=O)OC)[C@@H]2C1=O`, the “activity change, negative = inhibition” value was inactive: -9.8%.
Consider `O=C1N/C(=N/NC(=O)c2cccc3ccccc23)S/C1=C\c1ccccc1OCc1ccccc1`, for which the Potency is active: 22.4 µM.
For the compound `CC(C)Oc1ccc(CNS(=O)(=O)c2csc(C(N)=O)c2)cc1`, the “activity change, negative = inhibition” value is inactive: 2.32%.
Still for that read-out and setting: the value for `C[C@H](CO)N1C[C@H](C)[C@H](CN(C)C(=O)Nc2cccc(Oc3ccccn3)c2)OCc2cnnn2CCCC1=O` was inactive: -9.72%.
`COc1ccc(S(=O)(=O)/N=C2/NC(=O)/C(=C\c3ccco3)S2)cc1`: the Potency was active: 17.8 µM.
Regarding `CSCC[C@H](NC(=O)C1=NN(c2c(F)c(F)cc(F)c2F)C(=O)CC1)c1nc2ccccc2[nH]1`, the “activity change, negative = inhibition” value was inactive: 33.3%.
On the same count and under the same terms, under `OCC[C@@H]1C[C@@H](O)[C@H](O)[C@]2(CCCc3ccccc3O2)O1` stands inactive: -3.35%.
The same measure, in the same setting: the value for `C[C@](N)(Cc1ccc(O)c(O)c1)C(=O)O` was inactive: 3.99%; that for `OCC[C@@H]1C[C@@H](O)[C@H](O)[C@@]2(CCCc3ccccc3O2)O1` was inactive: -18.6%.
As for `COc1ccc(/C=C/C(=O)O)cc1S(=O)(=O)N1CCC(C)CC1`, the Potency is active: 79.4 µM.
